The values that follow come from US11999737B2, “Kinase inhibitors and related methods of use” (Duke University, priority 2014, dated 2024).

One experiment has as its target PIM3 (Homo sapiens, UniProt Q86V86). The experiment can be described thus: 33P-ATP filter-binding kinase assay.
For experiment [1], the system named is MYPT1-T855 phosphorylation. The experiment can be described thus: MYPT1-T855 phosphorylation in human coronary artery smooth muscle cells. The experiment is classed as cell-based. The note with it: HS-38 10 μM, 40 min; serum-free or 2-min 5% FBS. The protocol: (§1) Cells were serum-starved overnight, incubated for 40 min with HS-38 (10 μM) or vehicle and treated (or not) with 5% FBS for 2 min prior to lysis in SDS-gel sample buffer for SDS-PAGE and western blotting with anti-diphospho(T18/S19)-LC20, anti-phosphoT855-MYPT1 or anti-phosphoT155-Par-4. Phosphorylated bands were quantified by scanning densitometry and normalized to the loading control (SM22). Phosphorylation levels in the presence of HS-38 are expressed as a percentage of control (absence of ZIPK inhibitor). Values represent means±S.E.M. (n values are indicated in parentheses).
as §1, with “Human coronary artery smooth muscle cells (hCA-VSMC)” for “Cells”, “fetal bovine serum (FBS)” for “FBS”, “anti-2P-LC20, anti-pT855-MYPT1” for “anti-diphospho(T18/S19)-LC20, anti-phosphoT855-MYPT1”, “anti-pPar-4.” for “anti-phosphoT155-Par-4.”, “(SM22 or GAPDH).” for “(SM22).”, “parentheses). The hCA-VSMC (#CC-2583) cells were from Lonza Inc. Cells were grown to passage 1.” for “parentheses).”

In experiment [2] the test system is Par-4-T155 phosphorylation. The experiment can be described thus: Par-4-T155 phosphorylation in human coronary artery smooth muscle cells. The experiment is classed as cell-based. The conditions noted are these: HS-38 10 μM, 40 min; serum-free or 2-min 5% FBS. The protocol:
as §1
as §1, with “Human coronary artery smooth muscle cells (hCA-VSMC)” for “Cells”, “fetal bovine serum (FBS)” for “FBS”, “anti-2P-LC20, anti-pT855-MYPT1” for “anti-diphospho(T18/S19)-LC20, anti-phosphoT855-MYPT1”, “anti-pPar-4.” for “anti-phosphoT155-Par-4.”, “(SM22 or GAPDH).” for “(SM22).”, “parentheses). The hCA-VSMC (#CC-2583) cells were from Lonza Inc. Cells were grown to passage 1.” for “parentheses).”

Another experiment addresses DAPK1 (Homo sapiens, UniProt P53355). The experiment can be described thus: 33P-ATP filter-binding kinase assay.
For a further experiment, the target named is PIM2 (Homo sapiens, UniProt Q9P1W9). The experiment can be described thus: 33P-ATP filter-binding kinase assay.
A further experiment deals with PIM3-GFP (Homo sapiens, UniProt Q86V86). The experiment can be described thus: FLECS elution of PIM3-GFP from γ-linked ATP Sepharose media. The experiment is classed as binding. The conditions noted are these: titration from ATP Sepharose; calculated from EC50; read-out: apparent Kd, elution of PIM3-GFP.
Another experiment addresses EGFR-TK (Homo sapiens, UniProt P00533). The experiment can be described thus: 33P-ATP filter-binding kinase assay (kinome profile). The conditions noted are these: 10 μM HS38. The experiment is classed as biochemical.
Another experiment deals with Abl kinase (Homo sapiens, UniProt P00519). The experiment is described as above. The format is biochemical. The note with it: 10 μM HS38.
Experiment [3] deals with LC20 diphosphorylation (T18/S19). The experiment can be described thus: LC20 diphosphorylation in human coronary artery smooth muscle cells. The format is cell-based. The conditions noted are these: HS-38 10 μM, 40 min; serum-free and 2-min 5% FBS; p<0.01. The method, then:
as §1
as §1, with “Human coronary artery smooth muscle cells (hCA-VSMC)” for “Cells”, “fetal bovine serum (FBS)” for “FBS”, “anti-2P-LC20, anti-pT855-MYPT1” for “anti-diphospho(T18/S19)-LC20, anti-phosphoT855-MYPT1”, “anti-pPar-4.” for “anti-phosphoT155-Par-4.”, “(SM22 or GAPDH).” for “(SM22).”, “parentheses). The hCA-VSMC (#CC-2583) cells were from Lonza Inc. Cells were grown to passage 1.” for “parentheses).”

A further experiment concerns the target GFP-ZIPK (Homo sapiens, UniProt O43293). The experiment can be described thus: FLECS elution of GFP-ZIPK from γ-linked ATP Sepharose media. The format is binding.
In the next experiment the target is smMLCK (Homo sapiens, UniProt Q15746). The experiment can be described thus: 33P-ATP filter-binding kinase assay.
The target of another experiment is PIM1 (Homo sapiens, UniProt P11309). The experiment can be described thus: 33P-ATP filter-binding kinase assay.
UniProt P11309, sequence (P11309 whole entry): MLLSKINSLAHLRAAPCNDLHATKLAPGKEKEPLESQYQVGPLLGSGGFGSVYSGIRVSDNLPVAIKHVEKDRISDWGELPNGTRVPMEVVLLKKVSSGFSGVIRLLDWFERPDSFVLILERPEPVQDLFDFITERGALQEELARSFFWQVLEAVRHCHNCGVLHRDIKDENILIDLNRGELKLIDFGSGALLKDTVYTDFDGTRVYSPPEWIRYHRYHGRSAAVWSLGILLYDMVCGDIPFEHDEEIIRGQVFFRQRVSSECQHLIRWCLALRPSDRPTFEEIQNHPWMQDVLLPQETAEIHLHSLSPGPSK

UniProt O43293, sequence (O43293 whole entry): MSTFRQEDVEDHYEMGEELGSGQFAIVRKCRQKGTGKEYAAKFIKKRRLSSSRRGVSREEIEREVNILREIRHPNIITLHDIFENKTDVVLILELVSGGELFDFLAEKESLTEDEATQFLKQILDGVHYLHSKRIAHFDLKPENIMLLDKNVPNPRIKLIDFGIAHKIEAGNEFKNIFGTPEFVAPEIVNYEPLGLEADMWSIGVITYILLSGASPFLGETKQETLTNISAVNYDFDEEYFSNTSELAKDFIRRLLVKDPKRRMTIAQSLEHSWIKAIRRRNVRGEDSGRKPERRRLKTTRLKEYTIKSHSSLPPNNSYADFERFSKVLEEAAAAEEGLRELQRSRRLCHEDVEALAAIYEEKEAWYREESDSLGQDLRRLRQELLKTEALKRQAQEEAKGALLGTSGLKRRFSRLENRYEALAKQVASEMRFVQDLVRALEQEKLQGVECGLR
UniProt P53355, sequence (P53355 whole entry): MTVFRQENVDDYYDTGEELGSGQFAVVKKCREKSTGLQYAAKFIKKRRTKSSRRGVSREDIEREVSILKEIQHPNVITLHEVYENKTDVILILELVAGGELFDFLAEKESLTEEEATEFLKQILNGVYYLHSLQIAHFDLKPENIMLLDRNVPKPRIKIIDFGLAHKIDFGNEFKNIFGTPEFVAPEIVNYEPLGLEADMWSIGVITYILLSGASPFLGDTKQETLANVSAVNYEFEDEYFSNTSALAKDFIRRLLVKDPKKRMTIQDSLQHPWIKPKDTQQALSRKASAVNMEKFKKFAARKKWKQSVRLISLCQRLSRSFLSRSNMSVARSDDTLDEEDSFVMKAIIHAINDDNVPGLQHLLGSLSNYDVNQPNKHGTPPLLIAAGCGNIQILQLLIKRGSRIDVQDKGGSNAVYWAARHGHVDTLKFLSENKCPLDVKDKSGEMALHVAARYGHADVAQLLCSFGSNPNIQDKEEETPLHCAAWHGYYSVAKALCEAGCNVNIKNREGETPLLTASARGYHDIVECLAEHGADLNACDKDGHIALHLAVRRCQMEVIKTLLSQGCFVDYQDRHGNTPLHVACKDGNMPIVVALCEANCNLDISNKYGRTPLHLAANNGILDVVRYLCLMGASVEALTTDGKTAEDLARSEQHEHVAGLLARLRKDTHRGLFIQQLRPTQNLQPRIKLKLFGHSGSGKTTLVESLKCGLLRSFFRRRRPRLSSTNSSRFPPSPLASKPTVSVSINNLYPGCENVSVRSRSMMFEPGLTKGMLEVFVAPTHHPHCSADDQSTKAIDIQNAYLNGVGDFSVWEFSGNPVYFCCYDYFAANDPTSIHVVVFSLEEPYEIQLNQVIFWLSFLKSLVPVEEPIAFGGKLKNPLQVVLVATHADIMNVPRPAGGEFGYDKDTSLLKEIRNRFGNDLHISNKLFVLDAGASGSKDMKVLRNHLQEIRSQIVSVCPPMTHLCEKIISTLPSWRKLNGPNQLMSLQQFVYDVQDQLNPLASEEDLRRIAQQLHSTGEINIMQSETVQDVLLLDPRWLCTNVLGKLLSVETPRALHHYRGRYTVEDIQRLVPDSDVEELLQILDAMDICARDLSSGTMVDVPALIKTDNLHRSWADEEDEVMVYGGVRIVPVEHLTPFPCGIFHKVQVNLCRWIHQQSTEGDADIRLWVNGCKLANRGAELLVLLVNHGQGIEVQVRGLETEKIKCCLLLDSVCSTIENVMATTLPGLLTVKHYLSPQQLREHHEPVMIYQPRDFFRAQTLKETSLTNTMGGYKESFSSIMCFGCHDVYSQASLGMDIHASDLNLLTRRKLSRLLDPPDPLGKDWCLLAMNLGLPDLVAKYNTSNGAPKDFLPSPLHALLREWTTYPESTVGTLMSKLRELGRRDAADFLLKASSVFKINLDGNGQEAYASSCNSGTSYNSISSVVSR
UniProt Q15746, sequence (Q15746 whole entry): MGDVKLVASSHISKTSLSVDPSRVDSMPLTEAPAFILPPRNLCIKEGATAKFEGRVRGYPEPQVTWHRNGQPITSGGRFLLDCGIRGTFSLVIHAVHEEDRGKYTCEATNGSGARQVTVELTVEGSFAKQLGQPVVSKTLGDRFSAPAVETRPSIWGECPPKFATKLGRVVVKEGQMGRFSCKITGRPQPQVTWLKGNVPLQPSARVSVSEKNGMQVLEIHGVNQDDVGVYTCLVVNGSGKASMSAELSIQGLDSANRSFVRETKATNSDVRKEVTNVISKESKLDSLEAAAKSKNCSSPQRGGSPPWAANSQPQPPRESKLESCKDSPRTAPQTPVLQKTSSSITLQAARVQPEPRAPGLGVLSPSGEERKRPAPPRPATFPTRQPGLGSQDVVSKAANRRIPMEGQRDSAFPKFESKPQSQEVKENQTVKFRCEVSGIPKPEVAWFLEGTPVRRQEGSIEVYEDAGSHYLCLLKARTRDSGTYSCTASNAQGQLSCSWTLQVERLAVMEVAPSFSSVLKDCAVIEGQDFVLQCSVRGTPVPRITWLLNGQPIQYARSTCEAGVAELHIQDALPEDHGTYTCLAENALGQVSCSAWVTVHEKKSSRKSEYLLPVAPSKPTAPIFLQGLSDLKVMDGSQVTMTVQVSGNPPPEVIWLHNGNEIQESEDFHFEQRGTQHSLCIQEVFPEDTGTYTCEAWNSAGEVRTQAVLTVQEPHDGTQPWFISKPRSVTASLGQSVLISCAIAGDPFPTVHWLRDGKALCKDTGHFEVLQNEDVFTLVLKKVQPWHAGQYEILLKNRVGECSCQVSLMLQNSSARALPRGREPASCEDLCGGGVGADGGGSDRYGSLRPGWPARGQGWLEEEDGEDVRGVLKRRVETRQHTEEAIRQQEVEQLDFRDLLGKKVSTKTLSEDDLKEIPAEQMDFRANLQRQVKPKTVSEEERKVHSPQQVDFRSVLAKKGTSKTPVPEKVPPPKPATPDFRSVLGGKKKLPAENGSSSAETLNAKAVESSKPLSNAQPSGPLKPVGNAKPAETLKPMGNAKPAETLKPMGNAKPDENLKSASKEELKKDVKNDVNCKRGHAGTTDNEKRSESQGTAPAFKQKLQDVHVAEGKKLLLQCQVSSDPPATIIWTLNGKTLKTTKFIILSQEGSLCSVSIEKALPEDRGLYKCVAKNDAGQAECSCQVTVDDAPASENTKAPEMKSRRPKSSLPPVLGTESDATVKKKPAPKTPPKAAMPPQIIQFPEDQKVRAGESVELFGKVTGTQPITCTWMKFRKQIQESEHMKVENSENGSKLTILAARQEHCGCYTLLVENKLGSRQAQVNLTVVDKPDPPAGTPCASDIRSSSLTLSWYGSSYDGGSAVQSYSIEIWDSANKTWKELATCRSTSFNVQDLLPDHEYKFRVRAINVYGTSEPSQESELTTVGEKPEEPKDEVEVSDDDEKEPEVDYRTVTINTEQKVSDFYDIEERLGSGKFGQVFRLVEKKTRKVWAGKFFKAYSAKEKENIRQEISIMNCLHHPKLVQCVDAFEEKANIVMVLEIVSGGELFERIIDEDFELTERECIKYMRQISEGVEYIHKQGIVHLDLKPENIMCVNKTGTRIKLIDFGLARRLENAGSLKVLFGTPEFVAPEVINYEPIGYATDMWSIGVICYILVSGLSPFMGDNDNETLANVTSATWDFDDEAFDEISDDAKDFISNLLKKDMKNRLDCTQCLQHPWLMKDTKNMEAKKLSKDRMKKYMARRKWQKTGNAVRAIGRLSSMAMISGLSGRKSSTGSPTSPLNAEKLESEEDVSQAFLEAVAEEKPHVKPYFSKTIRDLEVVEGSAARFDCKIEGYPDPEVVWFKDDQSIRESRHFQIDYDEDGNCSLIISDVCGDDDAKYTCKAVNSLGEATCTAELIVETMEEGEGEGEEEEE
UniProt Q9P1W9, sequence (Q9P1W9 whole entry): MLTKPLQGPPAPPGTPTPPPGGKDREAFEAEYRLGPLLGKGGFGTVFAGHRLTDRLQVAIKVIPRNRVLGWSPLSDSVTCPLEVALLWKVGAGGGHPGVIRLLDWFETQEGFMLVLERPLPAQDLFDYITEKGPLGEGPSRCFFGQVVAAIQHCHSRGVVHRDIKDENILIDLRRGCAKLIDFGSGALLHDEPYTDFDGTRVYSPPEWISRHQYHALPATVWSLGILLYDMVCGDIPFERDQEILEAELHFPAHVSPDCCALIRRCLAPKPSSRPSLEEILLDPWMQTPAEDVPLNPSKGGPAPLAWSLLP

Turning to `CC(Sc1nc2c(cnn2-c2cccc(Cl)c2)c(=O)[nH]1)C(N)=O` (stereo not drawn) [HS38], the inhibition at 10 µM at PIM3 was 76%; at DAPK1, 89%; on EGFR-TK, 41%; on Abl kinase, 0%. Moreover, the MYPT1-T855 phosphorylation result in [1] was “no significant effect”. In experiment [2], the Par-4-T155 phosphorylation entry is recorded as “no significant effect”. Moreover, at DAPK1 (kinome profiling), the 50% inhibitory concentration (IC50) amounted to 0.2 µM. The “fold less potent than against DAPK1 and PIM3” value on PIM2 is approximately 100 fold; on smMLCK, approximately 100 fold; at PIM1 it was approximately 10 fold. In addition, the Kd at PIM3-GFP was 0.019 µM; on GFP-ZIPK (titration from ATP Sepharose, calculated from EC50, read-out: apparent Kd, elution of GFP-ZIPK), 0.198 µM. In addition, in experiment [3], the LC20 diphosphorylation result is listed as “significant reduction”. Further, at GFP-ZIPK (drug candidate screen), the “increase in fluorescence above background on elution of GFP-ZIPK” value is reported as more than 4 fold. Also, on GFP-ZIPK (screen hits), the “elution of GFP-ZIPK confirmed by western blot analysis” value was “most potent”.
